Data on ten molecules can be found in PMC10567730, “PTPN23 ubiquitination by WDR4 suppresses EGFR and c-MET degradation to define a lung cancer therapeutic target” (Cell Death & Disease, 2023).

Chains of the proteins cited; added tags and fusions are not shown.
UniProt Q13620: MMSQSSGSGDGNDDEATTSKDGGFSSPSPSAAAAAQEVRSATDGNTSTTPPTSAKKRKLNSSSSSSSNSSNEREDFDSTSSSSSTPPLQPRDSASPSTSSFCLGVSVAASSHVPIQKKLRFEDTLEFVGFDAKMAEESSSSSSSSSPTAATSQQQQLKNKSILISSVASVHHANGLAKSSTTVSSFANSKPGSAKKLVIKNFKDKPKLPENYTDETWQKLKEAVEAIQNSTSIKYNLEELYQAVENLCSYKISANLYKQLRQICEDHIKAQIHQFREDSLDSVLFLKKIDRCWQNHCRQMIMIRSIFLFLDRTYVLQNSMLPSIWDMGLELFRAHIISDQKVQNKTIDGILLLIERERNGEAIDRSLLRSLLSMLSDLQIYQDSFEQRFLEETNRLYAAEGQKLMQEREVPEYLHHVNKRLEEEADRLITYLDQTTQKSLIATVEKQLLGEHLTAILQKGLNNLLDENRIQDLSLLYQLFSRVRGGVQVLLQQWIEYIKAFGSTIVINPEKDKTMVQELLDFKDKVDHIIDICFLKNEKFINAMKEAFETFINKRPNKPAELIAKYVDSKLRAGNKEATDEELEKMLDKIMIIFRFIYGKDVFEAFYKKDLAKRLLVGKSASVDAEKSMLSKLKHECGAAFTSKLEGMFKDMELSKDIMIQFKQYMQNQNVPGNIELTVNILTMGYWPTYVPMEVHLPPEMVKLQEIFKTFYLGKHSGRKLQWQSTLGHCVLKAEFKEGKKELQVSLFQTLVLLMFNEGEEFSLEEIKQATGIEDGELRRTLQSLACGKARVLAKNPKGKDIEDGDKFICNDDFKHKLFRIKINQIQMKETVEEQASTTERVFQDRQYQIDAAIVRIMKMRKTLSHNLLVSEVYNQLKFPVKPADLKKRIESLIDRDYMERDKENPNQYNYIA
UniProt Q13619: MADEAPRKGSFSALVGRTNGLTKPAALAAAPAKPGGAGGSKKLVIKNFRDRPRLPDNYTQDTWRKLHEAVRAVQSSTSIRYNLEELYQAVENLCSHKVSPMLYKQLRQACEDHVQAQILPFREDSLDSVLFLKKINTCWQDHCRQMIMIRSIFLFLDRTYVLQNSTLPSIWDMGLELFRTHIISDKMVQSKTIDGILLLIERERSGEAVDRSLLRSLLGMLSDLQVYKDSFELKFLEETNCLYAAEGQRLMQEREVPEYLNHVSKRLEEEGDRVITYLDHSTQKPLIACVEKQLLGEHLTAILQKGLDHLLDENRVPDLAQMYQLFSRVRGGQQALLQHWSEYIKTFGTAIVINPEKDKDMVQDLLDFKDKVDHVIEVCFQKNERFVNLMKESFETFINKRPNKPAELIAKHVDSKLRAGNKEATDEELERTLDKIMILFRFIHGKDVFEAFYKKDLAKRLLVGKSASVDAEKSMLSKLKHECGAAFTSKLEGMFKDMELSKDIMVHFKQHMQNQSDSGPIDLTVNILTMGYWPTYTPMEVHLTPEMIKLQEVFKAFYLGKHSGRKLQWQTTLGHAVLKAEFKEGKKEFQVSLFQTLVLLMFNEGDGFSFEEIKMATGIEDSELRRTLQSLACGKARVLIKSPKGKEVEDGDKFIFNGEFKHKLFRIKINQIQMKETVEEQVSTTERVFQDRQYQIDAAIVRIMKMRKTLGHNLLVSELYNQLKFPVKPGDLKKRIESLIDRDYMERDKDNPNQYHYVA

No constants are given. Whether binding was seen depends on the method and setting. For some assays here: In cells and extracts the contact can be indirect. Some results given as binding are weak or reduced against the parent protein; the word gives no strength. For some assays here: Sequences can lack the tags named with a protein.

For assay [1], the target named is T1, endogenous WDR4 (human (endogenous in H1299, HEK293T, H1975)) (UniProt P57081).
T1 sequence: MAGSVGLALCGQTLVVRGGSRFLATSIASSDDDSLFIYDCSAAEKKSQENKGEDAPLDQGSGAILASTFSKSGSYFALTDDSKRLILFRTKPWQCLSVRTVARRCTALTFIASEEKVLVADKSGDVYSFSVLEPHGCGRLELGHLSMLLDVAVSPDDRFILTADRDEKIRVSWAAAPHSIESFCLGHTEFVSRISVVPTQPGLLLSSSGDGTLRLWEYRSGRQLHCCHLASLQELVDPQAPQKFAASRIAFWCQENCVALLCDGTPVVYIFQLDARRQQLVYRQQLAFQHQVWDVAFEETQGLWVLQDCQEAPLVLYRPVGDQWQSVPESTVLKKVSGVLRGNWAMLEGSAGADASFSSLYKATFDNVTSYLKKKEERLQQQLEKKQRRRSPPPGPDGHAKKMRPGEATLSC
In words: co-IP; endogenous proteins from H1299 and HEK293T cells lysed in RIPA buffer.

In assay [2] the target is T1, endogenous WDR4 (human (endogenous in H1299, HEK293T, H1975)). In words: proximity ligation; Duolink in situ PLA with antibodies to PTPN23 and WDR4 in H1299 cells.
Assay [3] shares this target. The experiment in a line: co-IP; endogenous PTPN23 and WDR4 in H1299 cells transiently transfected with GFP-Bro40 or GFP-Bro40mut and treated with 5 μM MG132 for 16 h.
For assay [4] the target is unchanged. In words: co-IP; endogenous PTPN23 and WDR4 in H1975 cells incubated with Bro40 peptide or vehicle and treated with 5 μM MG132 for 16 h.
Another assay has as its target T2, GST-WDR4 (UniProt P57081).
T2 sequence: T1 sequence
In words: pull-down; GST-WDR4 bound on glutathione beads incubated with purified PTPN23 or PTPN23 segments; binding buffer 50 mM Tris-HCl pH 7.5, 150 mM NaCl, 1% NP-40; bound proteins by Western blot; both purified. On the technique in general: A western blot detects proteins with antibodies after separation by electrophoresis.

For assay [5], the target named is T3, WDR4 (co-precipitation with PTPN23 Bro1 constructs in H1299 cells) (UniProt P57081).
T3 sequence: T1 sequence
In words: co-IP; PTPN23 Bro1 or its truncated mutants expressed in H1299 cells (Fig. 6B, C); cells of Supplementary Fig. S5A not stated.

The target of another assay is Myc-Cul4B (UniProt Q13620). The experiment in a line: co-IP; WDR4-based Cul4 ligase complex purified with anti-Myc beads from HEK293T cells cotransfected with Myc-Cul4A or Myc-Cul4B and other complex subunits; integrity of the input complex shown by blot.
The target of another assay is Myc-Cul4A (UniProt Q13619). The assay is described as above.

For the molecule “endogenous PTPN23 (from UniProt Q9H3S7 1-1636)”, the binding entry in assay [1], in assay [2], in assay [3] and in assay [4] was “binds” each time.

B1: Flag-PTPN23 Bro1 domain (purified from baculovirus) (domain or fragment, UniProt Q9H3S7 1-361)
chain: MEAVPRMPMIWLDLKEAGDFHFQPAVKKFVLKNYGENPEAYNEELKKLELLRQNAVRVPRDFEGCSVLRKYLGQLHYLQSRVPMGSGQEAAVPVTWTEIFSGKSVAHEDIKYEQACILYNLGALHSMLGAMDKRVSEEGMKVSCTHFQCAAGAFAYLREHFPQAYSVDMSRQILTLNVNLMLGQAQECLLEKSMLDNRKSFLVARISAQVVDYYKEACRALENPDTASLLGRIQKDWKKLVQMKIYYFAAVAHLHMGKQAEEQQKFGERVAYFQSALDKLNEAIKLAKGQPDTVQDALRFTMDVIGGKYNSAKKDNDFIYHEAVPALDTLQPVKGAPLVKPLPVNPTDPAVTGPDIFAKLV
Turning to B1, the binding result with GST-WDR4 was “binds”.

B2: PTPN23 Bro1 (GST pull down of Fig. 6D) (domain or fragment, UniProt Q9H3S7 1-361)
chain: B1 chain
Take B2: in the assay with GST-WDR4, the binding result is given as “binds”.

B3: PTPN23 Bro1 (expressed in H1299 cells) (domain or fragment, UniProt Q9H3S7 1-361)
chain: B1 chain
Take B3: the binding result in assay [5] is listed as “binds”.

B4: PTPN23 M2 segment with deletion of residues 289–328 (Δ6) (domain or fragment, UniProt Q9H3S7 108-288)
chain: EDIKYEQACILYNLGALHSMLGAMDKRVSEEGMKVSCTHFQCAAGAFAYLREHFPQAYSVDMSRQILTLNVNLMLGQAQECLLEKSMLDNRKSFLVARISAQVVDYYKEACRALENPDTASLLGRIQKDWKKLVQMKIYYFAAVAHLHMGKQAEEQQKFGERVAYFQSALDKLNEAIKLAK
Turning to B4, the binding entry in assay [5] is given as “no binding”.

B5: GST-WDR4 (natural protein, UniProt P57081 1-412, looked up)
chain: T1 sequence
notes: WDR4 cDNA amplified by PCR and cloned to pGEX-4T-1; pGEX-4T-1 would place GST at the N-terminus (surmised from the vector); also called bacterially purified GST-WDR4
For B5, the binding result in the assay with Myc-Cul4B and in the assay with Myc-Cul4A was “binds” each time.

B6: PTPN23 Bro1 domain with deletion of residues 289–328 (Δ6), expressed in H1299 cells (domain or fragment, UniProt Q9H3S7)
chain: MEAVPRMPMIWLDLKEAGDFHFQPAVKKFVLKNYGENPEAYNEELKKLELLRQNAVRVPRDFEGCSVLRKYLGQLHYLQSRVPMGSGQEAAVPVTWTEIFSGKSVAHEDIKYEQACILYNLGALHSMLGAMDKRVSEEGMKVSCTHFQCAAGAFAYLREHFPQAYSVDMSRQILTLNVNLMLGQAQECLLEKSMLDNRKSFLVARISAQVVDYYKEACRALENPDTASLLGRIQKDWKKLVQMKIYYFAAVAHLHMGKQAEEQQKFGERVAYFQSALDKLNEAIKLAKTLQPVKGAPLVKPLPVNPTDPAVTGPDIFAKLV
In the case of B6, the binding entry in assay [5] is “no binding”.

B7: PTPN23 Bro_Δ6 (GST pull down of Fig. 6D) (domain or fragment, UniProt Q9H3S7)
chain: B6 chain
For the molecule B7, the binding result with GST-WDR4 is “no binding”.

B8: PTPN23 M2 segment (residues 108–328) (domain or fragment, UniProt Q9H3S7 108-328)
chain: EDIKYEQACILYNLGALHSMLGAMDKRVSEEGMKVSCTHFQCAAGAFAYLREHFPQAYSVDMSRQILTLNVNLMLGQAQECLLEKSMLDNRKSFLVARISAQVVDYYKEACRALENPDTASLLGRIQKDWKKLVQMKIYYFAAVAHLHMGKQAEEQQKFGERVAYFQSALDKLNEAIKLAKGQPDTVQDALRFTMDVIGGKYNSAKKDNDFIYHEAVPALD
For B8, in assay [5], the binding entry was “binds”.

B9: GFP-Bro40 (peptide, UniProt Q9H3S7 289-328)
chain: GQPDTVQDALRFTMDVIGGKYNSAKKDNDFIYHEAVPALD
With B9, the binding result in assay [3] is “binds”.
